Measurements published in PubChem BioAssay AID686978 (National Center for Advancing Translational Sciences (NCATS), 2013).
Out of some 420,000 compounds screened, about 64,000 (15%) were called active. Inconclusive means that the source gave no clear call. Such entries were picked first, then a sample of the others. Calls follow the shape of the dose curve; as a rule, active = well fitted inhibition curve with a large enough effect; inconclusive = small, poorly fitted or top-dose-only effect; inactive = flat fitted curve, though single readings scatter. No potency is given beside an inconclusive call; the fits are too rough.

assay: qHTS for Inhibitors of human tyrosyl-DNA phosphodiesterase 1 (TDP1): qHTS in cells in absence of CPT; details: DT40 Tdp1-/- hTDP1 cells, no CPT, ATP luminescence, 48 h; activity change, negative = growth inhibition: at 46.2 µM (top of the series); also: nearly all actives have a fitted effect of over 55% in size
Outline: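 Camptothecin absent (DMSO only). Human TDP1-complemented DT40 knockout cells, 400 cells/well, 37 °C for minimum 48 hr; ATP measured via CellTiter-Glo, 30 min dark incubation, luminescence.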
% is scaled to controls: 0 for no effect and ±100 for the full control effect; potency is read from the fitted curve at half-maximal effect; tags tell the direction and shape of the fitted curve.

SMILES | Potency | activity change, negative = growth inhibition
Cc1ccc(CNC(=O)Cn2c3ncccc3c(=O)n2-c2ccc(C)cc2)cc1 | inconclusive [inhibitor, single point] | –
O=C(C1CCC1)N(CCc1ccccc1)Cc1nc2ccccc2c(=O)[nH]1 | inconclusive [inhibitor, single point] | –
CCCOC(=O)C1=C(C)N(C)C(=O)NC1c1cc2c(cc1[N+](=O)[O-])OCO2 (configuration not stated) | inconclusive [inhibitor, single point] | –
COc1ccc2[nH]c3c(c2c1)CCNC3=O | inconclusive [inhibitor, partial curve, poor fit] | –
O=C(NCCc1nc2ccccc2n1CCOc1ccc2ccccc2c1)C1CCCCC1 | inconclusive [inhibitor, single point] | –
S=C(NCCc1ccccc1)Nc1ccc(Cl)cc1Cl | inconclusive [inhibitor, partial curve] | –
COc1ccccc1N1CCN(c2cc(C)nc3nncn23)CC1 | inconclusive [inhibitor, single point] | –
COc1ccc(C)c2sc(N3CCN(C(=O)c4ccco4)CC3)nc12 | active: 18.4 µM | –
O=C(Nc1nc(-c2ccc(S(=O)(=O)N3CCCC3)cc2)cs1)c1cccs1 | active: 14.6 µM | –
CC(=O)N1N=C2c3ccccc3CCC2C1c1cccs1 (configuration not stated) | inconclusive [inhibitor, single point] | –
CC(C)c1cc(-c2nc(-c3cccc(Cl)c3)no2)n[nH]1 | inconclusive [inhibitor, single point] | –
O=[N+]([O-])c1cc(C(F)(F)F)c(Cl)cc1N1CCN(CCO)CC1 | inconclusive [inhibitor, single point] | –
Cc1ccc(-c2cccc(=O)o2)cc1 | – | inactive: -2.83%
O=c1[nH]c2ccc(S(=O)(=O)N3CCC(Cc4ccccc4)CC3)cc2o1 | inconclusive [inhibitor, single point] | –
N/N=C(\Cc1cscn1)c1ccc(O)cc1O | – | inconclusive: -24.4% [inhibitor]
CC1(C)C2CCC1(C)C(OC(=O)CC(=O)O)C2 (configuration not stated) | – | inactive: -11.8%
C[C@H](NC(=O)C1CCN(S(=O)(=O)c2ccccc2)CC1)C(=O)NCc1ccc(F)cc1 | – | inactive: 6.57%
COc1ccc(NS(=O)(=O)c2cc(NC(=O)CC(=O)c3ccc([N+](=O)[O-])cc3)ccc2C)cc1 | inconclusive [inhibitor, partial curve] | –
CCC(=O)NC(=S)Nc1ccc(N2CCN(C(=O)c3ccc(Cl)cc3)CC2)cc1 | inconclusive [inhibitor, single point] | –
CCC(Sc1nc2n[nH]c(C)c2c(=N)n1-c1cc(Cl)ccc1C)C(=O)N1CCOCC1 (configuration not stated) | active: 11.6 µM | –
CCC(=O)Nc1ccc(C(=O)N/N=C/c2c(C)[nH]c3ccccc23)cc1 | inconclusive [inhibitor, single point] | –
O=C(/C=C/c1cccc([N+](=O)[O-])c1)Nc1cccc(NC(=O)c2cccs2)c1 | active: 18.4 µM | –
Cc1ccc2oc(C(=O)Nc3sc4c(c3C(=O)NCc3ccco3)CCC4)cc(=O)c2c1 | inconclusive [inhibitor, full curve, poor fit] | –

SMILES | Potency | activity change, negative = growth inhibition
CC1CCCN(S(=O)(=O)c2ccc3[nH]c(=O)cc(C(=O)NCCCN4CCCCCC4)c3c2)C1 (configuration not stated) | inconclusive [inhibitor, single point] | –
CCSc1ccc(C(=O)Nc2cccc(C)n2)cc1[N+](=O)[O-] | inconclusive [inhibitor, partial curve, poor fit] | –
COc1ccc(N2CCN(C(c3cc(OC)ccc3OC)c3nnnn3CC3CCCO3)CC2)cc1 (configuration not stated) | – | inactive: -18.1%
COc1ccc(CNC(C)CCc2ccccc2)cc1 (configuration not stated) | inconclusive [inhibitor, single point] | –
COc1ccc(CNC(=O)c2ccc(Cl)c(S(=O)(=O)N3CCCCCC3)c2)cc1 | inconclusive [inhibitor, single point] | –
CC1CCCCN1C(=O)CSc1nc(C2CC2)nc2c1cnn2-c1ccccc1 (configuration not stated) | inconclusive [inhibitor, single point] | –
CCOC(=O)C(C(=O)OCC)C(Nc1cccc(Br)c1)c1ccccc1 (configuration not stated) | inconclusive [inhibitor, single point] | –
Cc1cc(C)n(-c2ccc(C(=O)Nc3ccc4c(c3)OCO4)cc2)n1 | inconclusive [inhibitor, single point] | –
CCC(C)C(CO)NCCCn1cnc2c(OCc3ccccc3)ncnc21 (configuration not stated) | – | inactive: -7.85%
NN/C(=C\[N+](=O)[O-])Nc1ccc(Cl)cc1 | inconclusive [inhibitor, single point] | –
O=S(=O)(c1cccc(Br)c1)N1CCN(C(=S)NCC2CCCO2)CC1 (configuration not stated) | – | inactive: -9.69%
CCOc1ccc(CCNC(=O)CCc2nnc3ccc(N4CCOCC4)nn23)cc1 | – | inactive: -13.9%
CCOC(=O)N1CCC(N2C(=O)c3ccccc3C2Nc2ccc(S(=O)(=O)N3CCOCC3)cc2)CC1 (configuration not stated) | inconclusive [inhibitor, single point] | –
COc1ccc(-n2c(=S)[nH]c3cc(C(=O)NCCCN4CCCC4=O)ccc3c2=O)c(OC)c1 | – | inactive: 3.87%
Cn1c(C(=O)NCc2cccc(Cl)c2)cc2oc3ccccc3c21 | – | inactive: -21.4%
CC(Sc1cccc[n+]1[O-])C(=O)Nc1cccc(S(=O)(=O)N2CCOCC2)c1 (configuration not stated) | inconclusive [inhibitor, single point] | –
O=Cc1c(NCCc2cccc(F)c2)c2ccccc2[nH]c1=O | – | inactive: -6.03%
O=C(c1ccc(S(=O)(=O)c2ccccc2)cc1)N1CCCCCC1 | inconclusive [inhibitor, partial curve] | –
N#CCCn1cc(/C=N/NC(N)=S)c(-c2ccc(Br)cc2)n1 | inconclusive [inhibitor, partial curve] | –
COc1ccc(C(C)=O)cc1CSc1nnc(Nc2c(C)cccc2C)s1 | inconclusive [inhibitor, partial curve, poor fit] | –
CC(C)OC(=O)c1c(NC(=O)CCn2nnc3ccccc32)sc2c1CCCC2 | inconclusive [inhibitor, single point] | –
N=C1CCC(=N)c2c1c(O)c1ccccc1c2O | inconclusive [inhibitor, single point] | –
O=C(/C(=C/c1cccc(Cl)c1)c1nc2ccccc2[nH]1)c1ccccc1 | active: 23.1 µM | –

SMILES | Potency | activity change, negative = growth inhibition
CC(=O)N1CCC[C@@]2(CCN(C(=O)Nc3ccccc3)C2)C1 | – | inactive: -1.23%
COc1ccc(C(CC(=O)Nc2ccc(Br)cn2)N2Cc3ccccc3C2=O)cc1 (configuration not stated) | active: 23.1 µM | –
Cc1nn(CC(=O)NCc2ccc(N(C)C)cc2)c(=O)c2nn(-c3ccccc3)c(C)c12 | inconclusive [inhibitor, single point] | –
CN(C)CCOCCOc1ccc(Cl)c2ccccc12 | inconclusive [inhibitor, single point] | –
COC(=O)Cn1c(CN(C)Cc2ccccc2)nc2c1c(=O)n(C)c(=O)n2C | inconclusive [inhibitor, partial curve] | –
CCCCCCn1c(=O)c(C(=O)N/N=C/c2cccc(F)c2)c(O)c2ccccc21 | active: 1.03 µM | –
O=C(c1cc(S(=O)(=O)N2CCOCC2)c(Cl)cc1Cl)N1CCN(S(=O)(=O)c2cccc(F)c2)CC1 | inconclusive [inhibitor, single point] | –
COC(=O)N/N=C/c1cn(Cc2ccccc2F)c2ccccc12 | inconclusive [inhibitor, single point] | –
COCCCNC(=O)c1ccc(Cn2c(=O)c3cccn3c3cccnc32)cc1 | inconclusive [inhibitor, single point] | –
Cc1ccc(CS(=O)(=O)c2ncc(Cl)c(C(=O)Nc3ccc(OC(F)F)cc3)n2)cc1 | active: 3.66 µM | –
CC(=O)Nc1ccc(OC(=O)Oc2ccc(NC(C)=O)cc2)cc1 | inconclusive [inhibitor, single point] | –
CC1CCCN(C2(O)C(=O)Nc3ccc(Cl)cc32)C1 (configuration not stated) | inconclusive [inhibitor, partial curve, poor fit] | –
COc1cc(NC(=O)CSc2nc(=O)n(CCCN3CCOCC3)c3c2CCC3)cc(OC)c1 | – | inactive: -17.9%
Cc1ccc(S(=O)(=O)NC2c3cccc4cccc(c34)C2Sc2n[nH]c(N)n2)cc1 (configuration not stated) | active: 16.4 µM | –
CCOc1ccccc1NC(=O)N1CCC(c2nc3ccccc3[nH]2)CC1 | inconclusive [inhibitor, single point] | –
COc1ccc2c(c1)CCc1cnc(N)nc1-2 | inconclusive [inhibitor, partial curve] | –
O=[N+]([O-])c1ccc(O)c(-c2ccnc3cc(-c4ccccc4)nn23)c1 | inconclusive [inhibitor, single point] | –
COc1ccccc1N(CC(=O)NCCC1=CCCCC1)S(=O)(=O)c1ccccc1 | inconclusive [inhibitor, single point] | –
O=C(c1cccc(S(=O)(=O)N2CCN(c3ccc(F)cc3)CC2)c1)N1CCN(c2ccccc2O)CC1 | inconclusive [inhibitor, single point] | –
Cc1ccc(Cn2c(CN3CCN(c4cccc(Cl)c4)CC3)nc3c2c(=O)n(C)c(=O)n3C)cc1 | inconclusive [inhibitor, single point] | –
CCNc1nc(-c2cc(C)n(Cc3ccco3)c2C)cs1 | inconclusive [inhibitor, single point] | –
